The record followed here is the RNAGym collection of RNA variant scans (doi:10.7554/elife.90254).

B1: LINE1-full (parent)
chain: UACGUAGGUGGUUUUCCCCUGAUAGUGCUAAGGGGGCCUGGAAGUUUGGACUGGGCAGAGCUCAACACAGCGUGGCAAAGUGGCUGUGGCUAGACUGCCUCUCUGGAUUCCUCGUCACUCAGCAGGGCAUCUCUGAGAGAAAUGCC

Read counts are not given, so values of variants with three or more changes are uncertain.

This data set covers variants of B1. In words: self-cleavage, relative activity (ratio to wild type); higher = more cleavage; in vitro, sequencing; the parent is a self-cleaving ribozyme.
As for UACGUAGGUGGCUUUCCCCUGAUAGUGCUAAGGGGGCCUGGAAGUUUGGACUGGGCAGAGCUCAACACAGCGUGGUAAAGUGGCUGUGGCUAGACUGCCUCUCUGGAUUCCUCGUCACCCAGCAGGGCAUCUCUGAGAGAAAUGCC, the self-cleavage amounted to 2.26. Consider UACGUAGGUGGCUUUCCCCUGAUAGUGCUAAGGGGGCCUGGAAGUUUGGACUGGGCAGAGCUCAACACAGCGUGGCAGAGUGGCUGUGGCUAGACUGCCUCUCAGGAUUCCUCGUCACUCAGCAGGGCAUCUCUGAGAGAAAUGCC, for which the self-cleavage is 2.25. UACGUAGGUGGCUUUCCCCUGAUAGUGCUAAGGGGGCCUGGAAGUUUGGACUGGGCAGAGCUCAACUCAGCGUGGCAAAGUGGCUGUGGCUAGACAGCCUCUCUGGAUUCCUCGUCACUCAGCAGGGCAUCUCUGAGAGAAAUGCC: the self-cleavage turned out to be 0.07. As for UACGUAGGUGGCUUUCCCUUGAUAGUGCUAAGGGGGCCUGUAAGUUUGGACUGGGCAGAGCUCAACACAGCGUGGCAAAGUGGCUGUGGCUAGACUGCCUCUCUGGAUUCCUCGUCACUCAGCAGGGCAUCUCUGAGAGAAAUGCC, the self-cleavage turned out to be 1.02. The result for UACGUAGGUGGCUUUCCCCUGAUAGUGCUAAGGGGGCCUGGAAGUUUGGACUGGGCAGAGCUCAACACAGCGUGGCAAAGUGGCUGUGGCUAGACUGCCUCUCUGGAUUCCUCGUCACUCAGCAGGGCAUCUCUGAGAGUAACGCC reads 1.37; that for UACGUAGGUGGCUUUCCCCUGAUAGUGCUAAGGGGGCCUGGAAGUUUGGACUGGGCAGAGCUCAACACAGCGUGGCGAAGUGGCUGUGGCUAGACUGCCACUCUGGGUUCCUCGUCACUCAGCAGGGCAUCUCUGAGAGAAAUGCC, 0.97.

In the case of UACGUAGGUGGCUUUCCCCUGAUAGUGCUAAGGGGGCCUGGAAGUUUGGACUGGGCAGAGCUCAACACAGCGUGGCAAAGUGGCUGUGGCUAGACUGCCUCUCUGGAUUCCUCGUCACUCAGCGGGGCAUCUCUGAGAGAAGUGCC, the self-cleavage amounted to 1.25. For UACGUAGGUGGCUUUCCCCUGAUAAUGCUAAGGGGGCCUGGAAGUUUGGACUGGGCAGAGCUCAACACAGCGUGGCAAAGUGGCUGUGGCUAGACUGCCUCUCUGGAUUCCUCGUCACUCAGCGGAGCAUCUCUGAGAGAAAUGCC, the self-cleavage came to 0.88. UACGUAGGUGGCUUUCCCCUGAUAGUGCUAAGGGGGCCUGGAAGUUUGGACUGGGCAGAGCUCAACACAGCGUGGCAGAGUGGCUCUGGCUAGACUGCCUCUCUGGAUUCCUCGUCGCUCAGCAGGGCAUCUCUGAGAGAAAUGCC: the self-cleavage amounted to 0.19. In the case of UACGUAGGUGGCUUUCUCCUGAUAGUGCUAAGGGGGCCUGGAAGUUUGGACUGGGCAGAGCUCAACACAGCGUGGCGAAGUGGCUGUGGCUAGACUGCCUCUCUGGAUUCCUCGUCACUCAGCAGGGCAUCUCUGAGAGAAAUGCC, the self-cleavage is 2.78. UACGUAGGUGGCUUUCCCCUGAUAGUGCUAAGGGGGCCUGGAAGUUUGGACUGGGCAGAGCUCAACACAGAGUGGCAAAGUGGCUGUGGCUAGACUGCCUCUCUGGAUUCCUCAUCACUCAGCAGGGCAUCUCUGAGAGAAAUGCC: the self-cleavage amounted to 0.09. Turning to UACGUAGGUGGCUUUCCCCUGAUAAUGCUAAGGGGGCCUGGAAGUUUGGACUGGGCAGAGCUCAACACAGCGUGGCAAAGUGGCUGUGGCUAGACUGCCUCUCUGGAUUCCUCGUCACUCAGCAGGGCGUCUCUGAGAGAAAUGCC, the self-cleavage was found to be 1.53.

For the variant UACGUAGGUGGCUUUCCCUUGAUAGUGCUAAGGGGGCCUGGAAGUUUGGACUGGGCAGAGCUCAACACAGCGUGGCAAAGUGGCUGUGGCUAGACUGCCUCUCUGGAUUCCCCGUCACUCAGCAGGGCAUCUCUGAGAGAAAUGCC, the self-cleavage is 0.62.

With UACGUAGGUGGCUUUCCCUUGAUAGUGCUAAGGGGGCCUGGAAGUUUGGACUGGGCAGAGCUCAACACAGCGUGGCAAAGUGGCUGUGACUAGACUGCCUCUCUGGAUUCCUCGUCACUCAGCAGGGCAUCUCUGGGAGAAAUGCC, the self-cleavage was found to be 0.09. Regarding UACGUAGGUGGCUUUCCCCUGAUAGUGCUAAGGGGGCCUGGAAGUUUGGACUGGGCAGAGCUCAACACAGCGUGGCAAAGUGGCUGUGGCUAGACUGCCUCUCUGGAUUCCUCGUCACUCGGCGGGGCAUCUCUGAGAGAAAUGCC, the self-cleavage turned out to be 0.76.

UACGUAGGUGGCUUUCCCCUGAUAGUGCUAAGGGGGCCUGGAAGUUUGGACUGGGCAGAGCUCAACUCAGCGUGGCGAAGUGGCUGUGGCUAGACUGCCUCUCUGGAUUCCUCGUCACUCAGCAGGGCAUCUCUGAGAGGAAUGCC: the self-cleavage came out at 0.15. Take UACGUAGGUGGCUUUCCCCUGAUAGUGCUAAGGGGGCCUGGAAGUUUGGACUGGGCAGAGCUCAACACAGCGUGGCAGAGUGGCUGUGGCUAGACAGCCUCUCUGGAUUCCUCGUCACUCAGCUGGGCAUCUCUGAGAGAGAUGCC: the self-cleavage came out at 0.18. For the variant UACGUAGGUGGCUUUCCCCUGAUAGUGCUAAGGGGGCCUGGAAGUUUGGACUGGGCAGAGCUCAACACAGCGUGGCAAGGUGGCUGUGGCUAGACUGCCUCUCUGGAUUCCUCGUCGCUCAGCAGGGCAUCUCUGAGAGAAAUGCC, the self-cleavage came to 1.31. The result for UACGUAGGUGGCUUUCCCCUGAUAGUGCUAAGGGGGCCUGGAAGUUUGGACUGGGCAGAGCUCAACACAGCGUGGCAAAGUGGCUGUGGCUAGACUGCCUCUCUGGAUUCCUCGUCCCUCAGCAGGGCAUCUCAGAGAGAAAUGCC reads 1.15.
